Reference: patent publication US20210147536A1 (MAB VENTURE BIOPHARM, published 2021)

Legend:
[1] = biological target: T1, human LAG-3 on the cell surface (human, UniProt P18627 23-525); assay: cell-based or functional assay
T1 sequence (looked up): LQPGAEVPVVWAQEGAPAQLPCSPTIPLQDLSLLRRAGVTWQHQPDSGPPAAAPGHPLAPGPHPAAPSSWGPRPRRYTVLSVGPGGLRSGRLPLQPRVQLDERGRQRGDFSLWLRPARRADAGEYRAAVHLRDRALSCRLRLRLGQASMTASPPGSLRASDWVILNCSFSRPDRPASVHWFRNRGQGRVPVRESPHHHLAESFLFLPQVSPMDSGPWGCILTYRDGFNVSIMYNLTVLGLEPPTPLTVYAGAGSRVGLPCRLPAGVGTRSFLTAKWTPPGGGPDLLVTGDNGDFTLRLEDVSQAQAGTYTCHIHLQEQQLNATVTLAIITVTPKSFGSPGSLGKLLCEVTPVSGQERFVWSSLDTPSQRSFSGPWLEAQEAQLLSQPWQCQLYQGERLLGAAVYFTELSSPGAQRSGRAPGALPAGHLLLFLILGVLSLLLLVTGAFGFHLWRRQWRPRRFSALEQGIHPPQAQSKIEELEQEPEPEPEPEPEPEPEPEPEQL

[2] = biological target: T1, human LAG-3 on the cell surface; assay: flow cytometry on activated human CD4+ T cells expressing LAG-3, PE anti-human antibody
[3] = biological target: T2, human LAG-3-mFc recombinant fusion protein (human); assay: flow cytometry, blocking of hLAG-3-mFc (10 µg/ml) binding to MHC class II on Daudi cells
T2 construct: also called hLAG-3-mFc
T2 chain: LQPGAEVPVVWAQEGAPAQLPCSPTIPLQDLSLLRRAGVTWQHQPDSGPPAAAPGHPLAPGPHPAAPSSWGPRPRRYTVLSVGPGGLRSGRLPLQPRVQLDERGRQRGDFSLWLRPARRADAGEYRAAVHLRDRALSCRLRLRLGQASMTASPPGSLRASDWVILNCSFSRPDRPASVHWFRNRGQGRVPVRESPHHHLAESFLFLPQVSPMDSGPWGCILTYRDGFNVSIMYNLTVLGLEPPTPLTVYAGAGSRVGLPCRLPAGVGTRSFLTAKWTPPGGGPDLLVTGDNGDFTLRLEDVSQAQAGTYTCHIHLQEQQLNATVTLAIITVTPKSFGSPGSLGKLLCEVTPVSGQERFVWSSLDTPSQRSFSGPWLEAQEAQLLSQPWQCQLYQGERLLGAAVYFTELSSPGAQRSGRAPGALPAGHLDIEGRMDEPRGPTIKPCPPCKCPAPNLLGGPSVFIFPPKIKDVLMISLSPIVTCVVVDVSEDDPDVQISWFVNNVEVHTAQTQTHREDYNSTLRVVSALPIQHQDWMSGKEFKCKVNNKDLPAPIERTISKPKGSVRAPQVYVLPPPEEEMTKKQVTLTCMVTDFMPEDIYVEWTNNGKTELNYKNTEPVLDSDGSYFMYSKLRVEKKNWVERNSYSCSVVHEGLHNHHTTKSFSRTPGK

[4] = biological target: T1, human LAG-3 on the cell surface; assay: flow cytometry on cells expressing the human LAG-3, PE anti-human IgG; N = 4
[5] = biological target: T3, recombinant mouse LAG-3-6*His tag fusion protein (mouse, UniProt Q61790 23-442); assay: ELISA, antibody coated at 1 µg/ml, mouse LAG-3-6*His titrated, anti-His HRP
T3 construct: made in Expi293 cells from the mouse LAG-3 cDNA; also called mouse LAG-3 antigen
T3 sequence: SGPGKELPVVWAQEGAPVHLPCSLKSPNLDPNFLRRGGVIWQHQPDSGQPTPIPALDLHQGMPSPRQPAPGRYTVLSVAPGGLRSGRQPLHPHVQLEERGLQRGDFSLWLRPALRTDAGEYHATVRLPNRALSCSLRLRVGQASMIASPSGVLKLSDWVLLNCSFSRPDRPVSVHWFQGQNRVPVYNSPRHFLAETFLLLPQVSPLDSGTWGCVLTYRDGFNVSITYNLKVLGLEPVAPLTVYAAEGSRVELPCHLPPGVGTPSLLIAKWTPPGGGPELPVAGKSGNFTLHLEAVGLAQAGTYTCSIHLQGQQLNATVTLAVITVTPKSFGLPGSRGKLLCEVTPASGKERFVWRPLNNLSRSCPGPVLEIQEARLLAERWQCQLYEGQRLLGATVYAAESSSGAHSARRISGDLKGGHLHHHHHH

[6] = biological target: T4, recombinant Macaca fascicularis LAG-3-6*His tag fusion protein (Macaca fascicularis); assay: ELISA, antibody coated at 1 µg/ml, Macaca fascicularis LAG-3-6*His titrated, anti-His HRP
T4 construct: Bought protein; also called Macaca fascicularis LAG-3 antigen

[7] = biological target: T5, human LAG-3-6*His tag recombinant fusion protein (human, UniProt P18627 23-450, biotin-labelled in panning and in Example 9); assay: ELISA, antibody coated at 1 µg/ml, human LAG-3-6*His titrated, anti-His HRP; range of three experiments
T5 construct: Bought protein; also called hLAG-3-6*his tag recombinant protein; human LAG-3-his tag recombinant fusion protein
T5 sequence: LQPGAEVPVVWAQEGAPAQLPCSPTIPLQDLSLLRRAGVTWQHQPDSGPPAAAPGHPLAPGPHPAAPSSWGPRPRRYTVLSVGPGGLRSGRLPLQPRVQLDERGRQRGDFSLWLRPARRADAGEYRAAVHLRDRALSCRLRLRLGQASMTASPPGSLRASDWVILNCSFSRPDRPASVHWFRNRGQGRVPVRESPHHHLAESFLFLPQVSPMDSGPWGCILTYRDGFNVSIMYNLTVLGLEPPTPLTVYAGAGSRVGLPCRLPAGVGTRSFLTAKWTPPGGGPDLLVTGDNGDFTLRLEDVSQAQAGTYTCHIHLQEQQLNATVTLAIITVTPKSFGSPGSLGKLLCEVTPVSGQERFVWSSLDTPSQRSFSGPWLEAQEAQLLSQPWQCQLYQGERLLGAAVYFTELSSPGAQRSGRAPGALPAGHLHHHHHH

[8] = biological target: T5, human LAG-3-6*His tag recombinant …; assay: SPR BIAcore T200, antibody on CM5 chip, human LAG-3-6*His 0.352 to 45 nM as analyte
[9] = biological target: T5, human LAG-3-6*His tag recombinant …; assay: ELISA, antibody coated at 1 µg/ml, human LAG-3-6*His titrated (the concentration axis is the antigen), anti-His-HRP detection, single experiment

B1: positive control antibody 25F7 (antibody, human IgG4 S228P, kappa)
heavy: QVQLQQWGAGLLKPSETLSLTCAVYGGSFSDYYWNWIRQPPGKGLEWIGEINHNGNTNSNPSLKSRVTLSLDTSKNQFSLKLRSVTAADTAVYYCAFGYSDYEYNWFDPWGQGTLVTVSSASTKGPSVFPLAPCSRSTSESTAALGCLVKDYFPEPVTVSWNSGALTSGVHTFPAVLQSSGLYSLSSVVTVPSSSLGTKTYTCNVDHKPSNTKVDKRV[human IgG4 Fc with S228P (EU numbers) omitted]
light: EIVLTQSPATLSLSPGERATLSCRASQSISSYLAWYQQKPGQAPRLLIYDASNRATGIPARFSGSGSGTDFTLTISSLEPEDFAVYYCQQRSNWPLTFGQGTNLEIKRTVAAPSVFIFPPSDEQLKSGTASVVCLLNNFYPREAKVQWKVDNALQSGNSQESVTEQDSKDSTYSLSSTLTLSKADYEKHKVYACEVTHQGLSSPVTKSFNRGEC
notes: made in an IgG4 kappa vector in ExpiCHO-S cells; also called BMS-25F7; BMS control monoclonal antibody
EC50 of NFAT reporter gene induction (bio-glo luciferase), LAG3/NFAT Reporter-Jurkat + Raji cells + superantigen [1]: 0.64 µg/mL | EC50 [2]: 0.0168 µg/mL | IC50 [3]: 3.3 µg/mL | EC50 [4]: 0.039 µg/mL | EC50 [5]: 3.2 µg/mL | EC50 [6]: 7 µg/mL | EC50 [7]: 0.08 to 0.14 µg/mL | Kd [8]: 0.356 nM | koff [8]: 0.00171 s⁻¹ | kon [8]: 4.81e+06 M⁻¹ s⁻¹ | EC50 (read off the curve) [9]: ~0.09 µg/mL
